{
  "source": "PubChem BioAssay AID1476",
  "about": "(National Center for Advancing Translational Sciences (NCATS), 2009)",
  "note": "The whole screen tested about 200,000 compounds, of which about 4,500 (2.2%) were called active. Inconclusive means that the source gave no clear call. Such entries were picked first, then a sample of the others. Calls follow the shape of the dose curve; as a rule, active = well fitted inhibition curve with a large enough effect; inconclusive = small, poorly fitted or top-dose-only effect, or effect the other way; inactive = flat fitted curve, though single readings scatter. Potencies of inconclusive entries are doubtful fits and often do not repeat. Potency is read from the fitted curve at half-maximal effect; tags tell the direction and shape of the fitted curve.",
  "data": [
    {"target": "Cruzipain (Trypanosoma cruzi) (UniProt P25779)", "sequence (P25779 whole entry, looked up)": "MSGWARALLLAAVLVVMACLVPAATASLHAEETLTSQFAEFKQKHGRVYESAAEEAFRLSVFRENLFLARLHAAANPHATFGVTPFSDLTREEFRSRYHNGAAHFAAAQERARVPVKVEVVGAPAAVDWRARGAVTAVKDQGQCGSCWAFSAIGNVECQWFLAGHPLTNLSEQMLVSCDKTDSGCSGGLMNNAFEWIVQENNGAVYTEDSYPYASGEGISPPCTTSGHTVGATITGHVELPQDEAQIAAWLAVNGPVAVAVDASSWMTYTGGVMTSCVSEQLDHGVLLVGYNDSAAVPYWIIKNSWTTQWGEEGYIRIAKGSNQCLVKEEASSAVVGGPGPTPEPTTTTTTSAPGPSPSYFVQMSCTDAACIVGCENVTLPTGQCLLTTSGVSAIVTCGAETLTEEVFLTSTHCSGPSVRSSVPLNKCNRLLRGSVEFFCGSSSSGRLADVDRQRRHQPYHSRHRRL", "test": "qHTS Assay for Promiscuous and Specific Inhibitors of Cruzain (without detergent); also: nearly all actives have a fitted effect of over 40% in size;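 as to max response, negative = inhibition: plate controls were enzyme without inhibitor for no effect and buffer without enzyme for full effect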", "conditions": "purified cruzain, Z-FR-AMC fluorescence, no detergent", "in_short": "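Detergent-free condition (0.00005% Triton X-100) in acetate buffer pH 5.5 with DTT. 1.5 nM enzyme and compound were pre-mixed 15 min, then 2 uM Z-FR-AMC substrate added; reaction progress from fluorescence change between first and third reads (60 s).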", "values": [
      {"smiles": "COC(=O)c1ccc(NC(=O)c2cc3cc(C)ccc3n2C)cc1", "Potency": "inconclusive: 39.8 µM [inhibitor, single point]"},
      {"smiles": "Cc1ccc(-c2nn(-c3ccccc3)cc2/C=N/NC(=O)c2ccc3c(c2)OCO3)cc1", "Potency": "active: 25.1 µM"},
      {"smiles": "C=CCOC(=O)N[C@@H](CCc1ccccc1)C(C(C)=O)C(C)=O", "max response, negative = inhibition": "inactive: 0.0178%"},
      {"smiles": "Cc1ccc(C(=O)C(OC(=O)CN2C(=O)c3ccccc3C2=O)c2ccccc2)cc1", "note": "(stereo not given)", "Potency": "inconclusive: 39.8 µM [inhibitor, single point]"},
      {"smiles": "COc1ccc(N2CCN(C(=O)c3c(C)nn(-c4ccc(F)cc4)c3-n3cccc3)CC2)cc1", "Potency": "inconclusive: 31.6 µM [activator, partial curve]"},
      {"smiles": "CCOCCc1nn2c(=O)cc(COC(=O)c3ccccc3NC(=O)c3cccs3)nc2s1", "max response, negative = inhibition": "inactive: -1.43%"},
      {"smiles": "CCOC(=O)N1CCc2c(sc3c2c(=O)n(CCc2ccccc2)c(=O)n3Cc2ccc(C)cc2C)C1", "max response, negative = inhibition": "inactive: -28.5%"},
      {"smiles": "COc1cc([N+](=O)[O-])ccc1N/C=C/C(=O)c1cccs1", "Potency": "inconclusive: 39.8 µM [inhibitor, single point]"},
      {"smiles": "O=C(NNc1ccc([N+](=O)[O-])cc1)C1CC1c1ccccc1", "note": "(stereo not given)", "Potency": "inconclusive: 20 µM [inhibitor, single point]"},
      {"smiles": "CCOC(=O)N1CCN(S(=O)(=O)c2cc(Br)cc3c2N(C(C)=O)C(C)C3)CC1", "note": "(stereo not given)", "Potency": "inconclusive: 31.6 µM [activator, single point]"},
      {"smiles": "COc1ccc(-c2nc(C(N)=O)c3[nH]c(=O)n(-c4cccc(C)c4)c3n2)c(OC)c1", "Potency": "inconclusive: 31.6 µM [activator, single point]"},
      {"smiles": "O=C(NC1CC(=O)N(c2ccccc2)C1)c1cccs1", "note": "(stereo not given)", "max response, negative = inhibition": "inactive: 2.63%"},
      {"smiles": "Cc1cccc(N2CCN(C(=O)CCNS(=O)(=O)c3ccc4c(c3)CCN4C(=O)C3CC3)CC2C)c1", "note": "(stereo not given)", "Potency": "inconclusive: 39.8 µM [activator, single point]"},
      {"smiles": "O=C(Nc1nnc(SCc2ccc(F)cc2)s1)C1CC(=O)N(Cc2ccccc2)C1", "note": "(stereo not given)", "Potency": "inconclusive: 31.6 µM [activator, single point]"},
      {"smiles": "CCc1ccc(N2CCN(C(=O)c3ccc(OC)c(OC)c3)CC2)cc1", "Potency": "inconclusive: 39.8 µM [activator, single point]"},
      {"smiles": "O=C(NCc1ccccc1)C12CN(Cc3ccccc3)CC1C(c1ccc([N+](=O)[O-])cc1)=NO2", "note": "(stereo not given)", "Potency": "inconclusive: 31.6 µM [inhibitor, single point]"},
      {"smiles": "O=C(/C=C/Nc1ccc(F)c(F)c1)c1ccc(Br)cc1", "Potency": "active: 25.1 µM"},
      {"smiles": "Cc1nn(-c2ccccn2)c2c1C(c1ccncc1)C1=C(CC(C)(C)CC1=O)N2", "note": "(stereo not given)", "max response, negative = inhibition": "inactive: -9%"},
      {"smiles": "O=C(Nc1ccc(Cl)cc1)[C@@H]1[C@@H]2C(=O)N(c3ccc4ccccc4c3)C(=O)[C@@H]2[C@H]2C=CC=NN21", "Potency": "active: 15.8 µM"},
      {"smiles": "CCCC(=O)O[C@]1(C(=O)COC(C)=O)CC[C@H]2[C@@H]3C[C@H](F)C4=CC(=O)C=C[C@]4(C)[C@@]3(F)[C@@H](O)C[C@@]21C", "Potency": "inconclusive: 25.1 µM [activator, single point]"},
      {"smiles": "O=C(CSc1nnnn1-c1ccc2c(c1)CCC2)Nc1ccc2c(c1)OCCO2", "Potency": "inconclusive: 31.6 µM [inhibitor, single point]"},
      {"smiles": "CC(C)NS(=O)(=O)c1ccc(OCC(=O)N2CCN(c3cccc(Cl)c3)CC2)cc1", "Potency": "inconclusive: 15.8 µM [activator, partial curve]"},
      {"smiles": "CC1=NN(c2ccc(S(=O)(=O)O)cc2)C(=O)/C1=C\\c1ccc(Cl)cc1", "max response, negative = inhibition": "inactive: -0.312%"},
      {"smiles": "COc1ccc(CCNc2nc(-c3sc(N)nc3C)cs2)cc1OC", "Potency": "active: 10 µM"},
      {"smiles": "Cc1sc(NC(=S)NC(=O)CCc2ccccc2)c(C(N)=O)c1C", "Potency": "active: 3.98 µM"},
      {"smiles": "COc1cccc(C2C(C#N)=C(N)OC3=C2C(=O)CC(c2ccco2)C3)c1OCc1ccc(F)cc1", "note": "(stereo not given)", "Potency": "inconclusive: 3.16 µM [inhibitor, full curve]"},
      {"smiles": "COc1ccccc1N1CCN(C(=O)CSc2nc(C)c(Cc3ccccc3)c(=O)[nH]2)CC1", "Potency": "inconclusive: 39.8 µM [activator, single point]"},
      {"smiles": "COc1ccc(-c2nnc(SCC(=O)Nc3sc4c(c3C#N)CCCC4)n2-c2ccccc2)cc1", "Potency": "inconclusive: 39.8 µM [inhibitor, single point]"},
      {"smiles": "O=C(C1COc2cc(S(=O)(=O)Nc3ccc(Cl)cc3)ccc2O1)N1CCCC1", "note": "(stereo not given)", "max response, negative = inhibition": "inactive: 0.702%"},
      {"smiles": "CC(NC(=O)CCC(=O)NC(C)C1COc2ccccc2O1)C1COc2ccccc2O1", "note": "(stereo not given)", "Potency": "inconclusive: 39.8 µM [activator, single point]"},
      {"smiles": "CCOC(=O)c1ccc(NC(=O)CSc2nc3cccnc3n2C)cc1", "Potency": "inconclusive: 39.8 µM [activator, single point]"},
      {"smiles": "COc1ccc(NC(=O)CSc2nc(O)cc(=O)n2-c2ccccc2OC)cc1", "Potency": "active: 15.8 µM"},
      {"smiles": "O=C(COC(=O)CNC(=O)c1ccccc1F)Nc1ccc2c(c1)OCCO2", "Potency": "active: 3.16 µM"},
      {"smiles": "O=S1(=O)c2ccccc2N=NN1Cc1ccc(Cl)cc1", "Potency": "inconclusive: 39.8 µM [inhibitor, single point]"},
      {"smiles": "COc1cc(C2C(C(=O)OCCC#N)=C(C)NC3=C2S(=O)(=O)c2ccccc23)cc(OC)c1OC", "note": "(stereo not given)", "Potency": "inconclusive: 39.8 µM [activator, single point]"},
      {"smiles": "O=c1cc(CN2CCN(c3ccccc3)CC2)c2c(ccc3ccccc32)o1", "Potency": "inconclusive: 39.8 µM [inhibitor, single point]"},
      {"smiles": "CCc1ccccc1NC(=O)C1=CC(c2ccc3c(c2)OCO3)=NS(=O)(=O)N1C", "max response, negative = inhibition": "inactive: 3.17%"},
      {"smiles": "COc1ccc(-n2c(SCC(=O)Nc3ccccc3)nnc2-c2ccc(NS(=O)(=O)c3ccc(C)cc3)cc2)cc1", "Potency": "inconclusive: 39.8 µM [inhibitor, single point]"},
      {"smiles": "CCCC(=O)Nc1c(C(=O)N2CCN(c3ccccc3)CC2)oc2ccccc12", "Potency": "inconclusive: 39.8 µM [activator, single point]"},
      {"smiles": "COc1ccccc1C(=O)N1CCC(c2c[nH]c3ccccc23)(c2c[nH]c3ccccc23)CC1", "max response, negative = inhibition": "inactive: -20.8%"}
    ]}
  ]
}
